This is one part of the list.
T1: UNK ZnF1-3 (human, UniProt Q9C0B0 31-174)
T1 sequence: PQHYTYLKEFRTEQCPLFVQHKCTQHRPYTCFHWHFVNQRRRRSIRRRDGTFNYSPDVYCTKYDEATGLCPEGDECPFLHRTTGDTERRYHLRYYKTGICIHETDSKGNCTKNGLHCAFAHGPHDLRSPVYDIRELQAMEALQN

B1: 85482702_85482822_4022_3pUTR_ENSMUSG00000042523_ENSMUST00000123491|mouse|control|control (ssRNA)
RNA: GGGAGUUCUACAGUCCGACGAUCUGUAAUACAAAUAUUAAGCUUUAGAGACAGAACAAAAUCUAUCAUAAAAGCUAGAUUUUGUUGACAGUGACAGAGGUAGAUUAACUGGUCAACCAUUGUCCUAACAUGAGCAGGGGACAACAACAGAGGAUUGAGCAUCA
B2: 120611786_120616068_578_CDS_ENSMUSG00000090100_ENSMUST00000028740|mouse|control|control (ssRNA)
RNA: GGGAGUUCUACAGUCCGACGAUCACGAAGGGUAGUGCUAAUAGUGAAUGUGCCCCGGGAUUGGCUACGGCGGAGAUCUGCCAGAUUCCGUCCCUGCAAUUGCAUGACCACGUAGUUGAAACGAUCAUUUCUCCCACAGCCAAUCAACAGAGGAUUGAGCAUCA
B3: 29965161_29965281_2354_3pUTR_ENSG00000104660_ENST00000321250|human|control|control (ssRNA)
RNA: GGGAGUUCUACAGUCCGACGAUCCCUGCAAAAAAAAGUCCAGUAGAUCACAAGCACAAAGAGUUCCCAACUGUCUCACCAGCUCUCUAACUCAUGUGUACCUGCACCUUCCUCUUGAAAUCUGAACAUUAUAAUACCACAAGCCAACAGAGGAUUGAGCAUCA
B4: chr4:140556289:140556290:+_ENSMUSG00000036622_ENSMUST00000037055|mus_mus|mus_mus_mus_hu_False|8_8 (ssRNA)
RNA: GGGAGUUCUACAGUCCGACGAUCGAUGGAGCUCACCAGGCCCCCUUUUGCCGUGCAGAACCCUGUGCGGGUCACCACUGCCAGGACGUGCGGUCCCACAUAGGCCCGGGCCUGCAAGAUGAGGGUCCCACAGAAGAGUGUGUGCAACAGAGGAUUGAGCAUCA
B5: chr8:101937209:101937210:-_ENSG00000164924_ENST00000353245|hu_hu|FALSE|FALSE (ssRNA)
RNA: GGGAGUUCUACAGUCCGACGAUCAUCACCAGCGGCAACCUCAGCCAAGUAACGGUAGUAAUCUCCUUUCAUUUUCAAAUAGAAGACUUUGCUCUCUGCUUGUGAAGCAUUGGGGAUCAAGAACUUUUCCAAAAGAGACAGUACCAACAGAGGAUUGAGCAUCA
B6: chr3:41265538:41265539:+_ENSG00000168036_ENST00000349496|hu_hu|FALSE|FALSE (ssRNA)
RNA: GGGAGUUCUACAGUCCGACGAUCCAUGUCCAACUCCAUCAAAUCAGCUUGAGUAGCCAUUGUCCACGCUGGAUUUUCAAAACAGUUGUAUGGUAUACUUCAAAUACCCUCAGGGGAACAGGCUCCUCCCGCCGCGGGAGUCCGCAACAGAGGAUUGAGCAUCA

biological target: T1, UNK ZnF1-3; test: nsRBNS (natural sequence RNA bind-n-seq); RBNS binding buffer (assumed for nsRBNS): 25 mM Tris pH 7.5, 150 mM KCl, 3 mM MgCl2, 0.01% Triton X-100, 500 ug/ml BSA, 20 U/ml SUPERase-In, 4 C; UNK is unkempt and MSI1 is Musashi-1; names of the RNAs are library labels; protein concentration not given here; high values mean tight binding

**Q.** With B1 as the binder, how does the binding signal read?
**A.** 1.15 enrichment R

**Q.** Which binding signal does the source give for B2 here?
**A.** 1.34 enrichment R

**Q.** B3 was tested. Which binding signal did it give?
**A.** 1.7 enrichment R

**Q.** B4 was tested. Which binding signal did it give?
**A.** 1.2 enrichment R

**Q.** For B5, which binding signal is on record?
**A.** 0.913 enrichment R

**Q.** For B6, which binding signal is on record?
**A.** 0.915 enrichment R

From publication PMC12136788
